# According to a collection of fitness landscapes (doi:10.1126/science.1257360):
# The other results are listed elsewhere or left out.
# B1: PhoQ; a variant is named by its letters at X, in order, P23837 (parent)
# chain: MKKLLRLFFPLSLRVRFLLATAAVVLVLSLAYGMVALIGYSVSFDKTTFRLLRGESNLFYTLAKWENNKLHVELPENIDKQSPTMTLIYDENGQLLWAQRDVPWLMKMIQPDWLKSNGFHEIEADVNDTSLLLSGDHSIQQQLQEVREDDDDAEMTHSVAVNVYPATSRMPKLTIVVVDTIPVELKSSYMVWSWFIYVLSANLLLVIPLLWVAAWWSLRPIEALAKEVRELEEHNRELLNPATTRELTSLVRNLNRLLKSERERYDKYRTTLTDLTHSLKTPLXXLQXXLRSLRSEKMSVSDAEPVMLEQISRISQQIGYYLHRASMRGGTLLSRELHPVAPLLDNLTSALNKVYQRKGVNISLDISPEISFVGEQNDFVEVMGNVLDNACKYCLEFVEISARQTDEHLYIVVEDDGPGIPLSKREVIFDRGQRVDTLRPGQGVGLAVAREITEQYEGKIVAGESMLGGARMEVIFGRQHSAPKDE
# Variants of: B1
# Experiment: enrichment ratio after two sorts for PhoP signalling (ratio (wild type AVST 3.29)); higher = more functional
# Conditions: with PhoP (E. coli)
row,Variant,enrichment ratio
1,AIGL,7.5
2,LNMW,≤ 0.25
3,EDSC,≤ 0.25
4,YEQT,≤ 0.25
5,ASAS,15.3
6,IMFS,≤ 0.25
7,QQWV,11.8
8,QYNL,≤ 0.25
9,FSTP,0.786
10,DDHM,≤ 0.25
11,TAGN,7.67
12,KPIE,≤ 0.25
13,DDWR,≤ 0.25
14,IISC,≤ 0.25
15,KQCA,≤ 0.25
16,WIPG,≤ 0.25
17,TFSH,≤ 0.25
18,VQPD,≤ 0.25
19,PICD,≤ 0.25
20,MVFQ,13.2
21,DDMV,≤ 0.25

row,Variant,enrichment ratio
1,GVMD,≤ 0.25
2,LFVG,≤ 0.25
3,EEHK,≤ 0.25
4,HGSN,≤ 0.25
5,FYYA,≤ 0.25
6,RGYV,≤ 0.25
7,LGEC,≤ 0.25
8,SGLD,≤ 0.25
9,AKWP,≤ 0.25
10,QGDS,≤ 0.25
11,LNGT,≤ 0.25
12,YPQW,≤ 0.25
13,FSMD,≤ 0.25
14,LGSV,≤ 0.25
15,IMMM,≤ 0.25
16,LFAH,≤ 0.25
17,VIHR,≤ 0.25
18,KNTV,≤ 0.25
19,YCES,≤ 0.25
20,LTDT,≤ 0.25
21,FVGD,≤ 0.25

row,Variant,enrichment ratio
1,ACPG,≤ 0.25
2,WIMI,≤ 0.25
3,KFTQ,≤ 0.25
4,EIVG,≤ 0.25
5,YDHQ,≤ 0.25
6,TWTR,≤ 0.25
7,GTDM,≤ 0.25
8,THET,≤ 0.25
9,RRPK,≤ 0.25
10,LNIM,≤ 0.25
11,HDNH,≤ 0.25
12,VSWQ,0.83
13,MQIW,≤ 0.25
14,YTNV,≤ 0.25
15,GLGH,≤ 0.25
16,MRGL,0.632
17,EMNF,≤ 0.25
18,YCQY,≤ 0.25
19,RVRY,≤ 0.25
20,NLWL,≤ 0.25
21,HPLW,≤ 0.25

row,Variant,enrichment ratio
1,MLWY,≤ 0.25
2,SYRA,≤ 0.25
3,MSSK,≤ 0.25
4,GQGR,≤ 0.25
5,DQRE,≤ 0.25
6,PWLL,≤ 0.25
7,DLPM,≤ 0.25
8,FTYC,≤ 0.25
9,GNHH,≤ 0.25
10,DTLV,≤ 0.25
11,WHVK,≤ 0.25
12,SHWH,≤ 0.25
13,VFRE,≤ 0.25
14,KYML,≤ 0.25
15,TIYH,≤ 0.25
16,IGMN,≤ 0.25
17,MCLY,≤ 0.25
18,EWTQ,≤ 0.25
19,NHKE,≤ 0.25
20,PKPF,≤ 0.25
21,YRAG,≤ 0.25
